The results in this text go back to publication PMC13083723 (Patterns, 2026).

SMILES strings stand for the structures. Among all 5,400 compounds or so, about 190 (3.5%) showed an effect of 50% or more. This is one part of the list.

In this assay the test system is Vero-E6. The experiment in a line: primary screen, phospholipidosis by LipidTOX staining; higher = more effect of the substance. To be noted: 10 µM. In a few lines: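 Drug-induced phospholipidosis detected with HCS LipidTOX Red reagent in Vero-E6 cells. Compounds tested at 10 μM, with amiodarone (10 μM) as positive control and DMSO (0.1 v/v %) as vehicle.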
Consider `O=C(Nc1ccc(O)cc1)c1ccccc1O`, for which the result_ITMP was found to be 18.9%.

Take `C=CC(=O)Nc1cccc(Nc2nc(Nc3ccc(N4CCN(C(C)=O)CC4)cc3OC)ncc2C(F)(F)F)c1`: the result_ITMP turned out to be 32.5%.

In the case of `Oc1ccc(Cl)c2cccnc12`, the result_ITMP is on record as 1.97%.

On to `Nc1c(Br)cc(Br)cc1CN[C@H]1CC[C@H](O)CC1`, for which the result_ITMP turned out to be 2.43%.

Consider `CC1Nc2ccc(Cl)cc2S(=O)(=O)N1` (stereo not shown), for which the result_ITMP was -0.33%.

On to `CCC(=O)c1ccc(O)cc1`, for which the result_ITMP is recorded as -7.42%.

On to `O=C([O-])C(=O)[O-].[NH-][C@@H]1CCCC[C@H]1[NH-].[Pt+4]`, for which the result_ITMP is 22.9%.

Take `COC(=O)c1sccc1S(=O)(=O)Nc1ccc(Nc2ccccc2)cc1OC`: the result_ITMP is listed as 2.22%.

`CC(C)(Sc1cc(C(C)(C)C)c(O)c(C(C)(C)C)c1)Sc1cc(C(C)(C)C)c(O)c(C(C)(C)C)c1`: the result_ITMP is listed as -4.21%.

As for `CCN1C(=O)NC(c2ccccc2)C1=O` (stereo not shown), the result_ITMP is reported as -4.16%.

Turning to `CN1CCCC(CC2c3ccccc3Sc3ccccc32)C1` (stereo not shown), the result_ITMP is 74.2%.

Take `COc1ccccc1N1CCN(CC(O)COc2cccc3ccccc23)CC1` (stereo not shown): the result_ITMP was 20%.

With `CN1CCC(=C2c3ccccc3CC(=O)c3sccc32)CC1`, the result_ITMP was 29%.

On to `O=C(O)CC[C@H]1CC[C@@](c2cc(F)ccc2F)(S(=O)(=O)c2ccc(Cl)cc2)CC1`, for which the result_ITMP was -3.26%.

Take `COc1ccc2c(c1)N(C[C@H](C)CN(C)C)c1ccccc1S2`: the result_ITMP came out at 53%.

On to `C/C=C1\NC(=O)[C@H]2CSSCC/C=C/[C@H](CC(=O)N[C@H](C(C)C)C(=O)N2)OC(=O)[C@H](C(C)C)NC1=O`, for which the result_ITMP is reported as -1.23%.

As for `COC(=O)c1ccccc1O`, the result_ITMP is on record as -1.83%.

For the compound `Cc1ncc(OC[C@@]2(c3cccc(F)c3)C[C@H]2C(=O)Nc2ccc(F)cn2)c(C)n1`, the result_ITMP was -0.98%.

As for `CCCCCCCCCCCCOS(=O)(=O)O`, the result_ITMP stood at 1.59%.

Regarding `CCc1cc2c(s1)-n1c(C)nnc1CN=C2c1ccccc1Cl`, the result_ITMP was -1.29%.

Take `COc1cc(OC)c(C(=O)CCCN2CCCC2)c(OC)c1`: the result_ITMP amounted to 3.55%.

Regarding `CC(C)Oc1ccc(Cc2ccc(NC3=NCCN3)cc2)cc1`, the result_ITMP was found to be 42.3%.

For the compound `NC(=O)CN1Cc2ccccc2OC1=O`, the result_ITMP is on record as -4.62%.

On to `N#CC(c1ccc(Cl)cc1)c1c(Cl)cc(-n2ncc(=O)[nH]c2=O)cc1Cl` (stereo not shown), for which the result_ITMP is on record as 8.2%.

In the case of `OCc1cc([C@@H](O)CNCCCCCCOCCOCc2c(Cl)cccc2Cl)ccc1O`, the result_ITMP amounted to 2.47%.

As for `O=c1ccc2ccc(O)c(O)c2o1`, the result_ITMP is on record as -5.48%.

For the compound `Cc1ccc(NC(=O)C(C)C)cc1C1CCN(Cc2ccc(Oc3ccc(F)c(F)c3)cc2)CC1`, the result_ITMP was 22.4%.

Regarding `CCOc1ccc(Cc2cc([C@@H]3O[C@H](SC)[C@@H](O)[C@H](O)[C@H]3O)ccc2Cl)cc1`, the result_ITMP is reported as 1.32%.

As for `N#C/C(=C\c1ccc(O)c(O)c1)C(N)=O`, the result_ITMP was -4.24%.

For `CO[C@@H]1COCC[C@@H]1N[C@@H]1CC[C@@](C(=O)N2CCc3ncc(C(F)(F)F)cc3C2)(C(C)C)C1`, the result_ITMP is given as 7.4%.

For the compound `CC(C)(C)C(=O)OCOP(=O)(COCCn1cnc2c(N)ncnc21)OCOC(=O)C(C)(C)C`, the result_ITMP is reported as -1.22%.

For the compound `CC(C)CC(N)C1(c2ccc(Cl)cc2)CCC1` (stereo not shown), the result_ITMP is listed as 9.43%.

As for `COc1ccc(CCNCc2ccc(OCc3ccc(Cl)nc3)c(OC)c2)cc1OC`, the result_ITMP worked out at 59.3%.

On to `Cn1c(=O)cnn(CCCCN2CCN(c3ncccn3)CC2)c1=O`, for which the result_ITMP was 0.56%.

For the compound `COc1cc2c(c(OC)c1OC)-c1c(cc3c(c1OC)OCO3)C[C@H](C)[C@@](C)(O)C2`, the result_ITMP is -2.3%.

For the compound `CC(=O)O[C@H]1CC[C@@]2(C)C(=CCC3C2CC[C@]2(C)C(=O)CCC32)C1` (stereo partly shown), the result_ITMP is 0.97%.

Take `CCCCc1nc(Cl)c(C(=O)O)n1Cc1ccc(-c2ccccc2-c2nnn[nH]2)cc1`: the result_ITMP is reported as -4.07%.

Regarding `Cc1cccc(/C=N/Nc2cc(N3CCOCC3)nc(OCCc3ccccn3)n2)c1`, the result_ITMP is recorded as -0.71%.

For `CC(C)(S)[C@@H](N)C(=O)O`, the result_ITMP is listed as 16.6%.

Consider `Cc1ccc(NC(=O)c2ccc(CN3CC[C@H](N(C)C)C3)c(C(F)(F)F)c2)cc1Nc1nccc(-c2cncnc2)n1`, for which the result_ITMP is reported as 18.8%.

For the compound `O=C(O)C1CSCN1` (stereo not shown), the result_ITMP is recorded as -4.52%.

With `CC(=O)NC[C@H]1CN(c2ccc(N3CCSCC3)c(F)c2)C(=O)O1`, the result_ITMP was determined as 5.74%.

As to `Cc1cc(C(=O)NNCc2ccccc2)no1`, the result_ITMP was -10.7%.

Take `O=S(=O)(NCC1CC1)c1ccc(Nc2nccc(N3CCCc4cc(O)ccc43)n2)cc1`: the result_ITMP is -9.55%.

Turning to `O=C(O)CCCN1C(=O)c2cccc3cccc(c23)C1=O`, the result_ITMP is reported as -9.41%.

On to `COc1ccc(-c2ccc(=N)n(CCCC(=O)O)n2)cc1`, for which the result_ITMP is -1.58%.

On to `CS(=O)(=O)c1cccc(CNc2nc(Nc3ccc4c(c3)CCC(=O)N4)ncc2C(F)(F)F)c1`, for which the result_ITMP is -6.68%.

As to `CCO[C@H]1O[C@@H]2O[C@@]3(C)CC[C@H]4[C@H](C)CC[C@@H]([C@H]1C)[C@@]24OO3`, the result_ITMP is given as -2.4%.

Turning to `COc1cc(OCc2cccc(-c3ccccc3)c2C)cc(OC)c1CN1CCCC[C@H]1C(=O)O`, the result_ITMP is on record as -1.58%.

Turning to `CCCCCCCCCCC[C@@H](C[C@@H]1OC(=O)[C@H]1CCCCCC)OC(=O)[C@H](CC(C)C)NC=O`, the result_ITMP is -8.59%.

Take `CC(C)(C)n1nc(-c2ccc(Cl)cc2)c2c(N)ncnc21`: the result_ITMP is on record as 0.6%.

As for `CCCCCCCCCCCCCCOC(=O)c1cccnc1`, the result_ITMP was 3.32%.

On to `Cn1cc(C(=O)c2cccc3ccccc23)cc1C(=O)O`, for which the result_ITMP is -1.38%.

Regarding `Cn1c(=O)c2c(ncn2CC(=O)O)n(C)c1=O`, the result_ITMP was -4.41%.

As to `O=C(CC(c1ccccc1)c1ccccc1)N1CCN(C(c2ccccc2)c2ccccc2)CC1`, the result_ITMP was -0.66%.

For `O=c1cc(N2CCNCC2)oc2c(-c3ccccc3)cccc12`, the result_ITMP was 19.1%.

As to `O=C1C2CCN(CC2)C1(CO)CO`, the result_ITMP is recorded as -2.06%.

`COc1cc2ncc(-c3ccccc3)nc2cc1OC`: the result_ITMP was -10.1%.

In the case of `Cc1ccccc1N(C)C(=O)c1ccc(S(=O)c2nccs2)c([N+](=O)[O-])c1` (stereo not shown), the result_ITMP is 70.1%.

With `CCC[C@H](Nc1nc(-c2ccc(NC(=O)NCC)c(OC)c2)ncc1C)c1cccnc1`, the result_ITMP is reported as 39.9%.

Take `C=CCC1(CC(C)C)C(=O)NC(=O)NC1=O`: the result_ITMP is -3.26%.

As to `COc1ccc(C(=O)Nc2sc3c(c2C(N)=O)CCCC3)cc1OC`, the result_ITMP was -1.46%.

Regarding `CC(=O)N[C@@H](CCC(N)=O)C(=O)O`, the result_ITMP is 3.75%.

For `O=C(Nc1cccc(C(F)(F)F)c1)Nc1ccc(Br)cc1-c1nnn[nH]1`, the result_ITMP is reported as 0.77%.

Take `CC(=O)NO`: the result_ITMP is 2.78%.

As to `CCC(C(=O)O)c1ccc(CC(C)C)cc1` (stereo not shown), the result_ITMP was -4.5%.

Take `CN(C)CC/C=C1\c2ccccc2CSc2ccccc21`: the result_ITMP worked out at 43.7%.

Take `COc1ccc([C@]2(O)CC[C@@H](N3CC[C@@H](NC(=O)CNC(=O)c4cccc(C(F)(F)F)c4)C3)CC2)cn1`: the result_ITMP is -1.15%.

For the compound `O=C(CCCN1CCC(n2c(=O)[nH]c3ccccc32)CC1)c1ccc(F)cc1`, the result_ITMP was 0.96%.

As for `COc1cc(Nc2ncc(F)c(Nc3ccc4c(n3)NC(=O)C(C)(C)O4)n2)cc(OC)c1OC`, the result_ITMP is recorded as 4.81%.

Regarding `COc1ccc(CCNCC(O)COc2cccc(C)c2)cc1OC` (stereo not shown), the result_ITMP came to 34.1%.

As to `CNC(=O)c1cccc(NC(=O)N2CCC(Oc3ccccc3Cl)CC2)c1`, the result_ITMP is recorded as -1.62%.

Take `CN1CCCN=C1COC(=O)C(O)(c1ccccc1)C1CCCCC1` (stereo not shown): the result_ITMP is reported as -2.78%.

For `CC(C)(Oc1ccc(Cl)cc1)C(=O)O`, the result_ITMP is -1.36%.

For the compound `CC[C@H]1OC(=O)[C@@](C)(F)C(=O)[C@H](C)[C@@H](O[C@@H]2O[C@H](C)C[C@H](N(C)C)[C@H]2O)[C@](C)(OC)C[C@@H](C)C(=O)[C@H](C)[C@H]2N(CCCCn3cc(-c4cccc(N)c4)nn3)C(=O)O[C@]12C`, the result_ITMP amounted to 11.3%.

Consider `Clc1ccc(COC(Cn2ccnc2)c2ccc(Cl)cc2Cl)c(Cl)c1` (stereo not shown), for which the result_ITMP is 5.2%.

For the compound `O=C(NCCN1CCC(n2c(=O)[nH]c3ccccc32)CC1)c1cc2cc(F)ccc2[nH]1`, the result_ITMP worked out at 8%.

`N=C1NCCN1CC(=O)O`: the result_ITMP turned out to be 1.96%.

Turning to `NCCC(Oc1ccc(C(F)(F)F)cc1)c1ccccc1` (stereo not shown), the result_ITMP is 62.2%.

As for `Cc1cc(=O)n(-c2ccccc2)n1C`, the result_ITMP is given as -2.37%.

As for `CS(=O)(=O)n1cc2c(n1)CN([C@H]1CO[C@H](c3cc(F)ccc3F)[C@@H](N)C1)C2`, the result_ITMP is listed as 0.04%.

For the compound `CCCN(CCc1cccs1)[C@H]1CCc2c(O)cccc2C1`, the result_ITMP is given as 2.79%.

Regarding `CC(C)(C)C(=O)NCCCC(=O)O`, the result_ITMP is given as -5.58%.

Turning to `N#Cc1ccc(N(Cc2ccc(Br)cc2)n2cnnc2)cc1`, the result_ITMP is -1.94%.

Take `Cn1ncc(Cl)c1-c1cc(C(=O)N[C@H](CN)Cc2cccc(F)c2)sc1Cl`: the result_ITMP was found to be 69.5%.

`Cc1ccc(/C=C2/C(=O)C3(C)CCC2C3(C)C)cc1` (stereo not shown): the result_ITMP was -2.21%.

Regarding `CC(C)(C)C[C@@H]1N[C@@H](C(=O)N[C@H]2CC[C@H](O)CC2)[C@H](c2cccc(Cl)c2F)[C@]12C(=O)Nc1cc(Cl)ccc12`, the result_ITMP is listed as 29.6%.

Take `O=c1c2ccccc2oc2ccccc12`: the result_ITMP is reported as -2.07%.

Regarding `Fc1cc(F)c2c(c1)[C@H]1C=CC[C@H]1C(c1cccnc1)N2` (mixture of isomers), the result_ITMP was -14.4%.

On to `CC(C)(C)c1cc(C(=O)/C(C#N)=N/Nc2cccc(Cl)c2)no1`, for which the result_ITMP is reported as -1.63%.

With `Cc1ccc(-c2ncc(Cl)cc2-c2ccc(S(C)(=O)=O)cc2)cn1`, the result_ITMP was -1.48%.

In the case of `NCC(=O)O`, the result_ITMP was -0.53%.

Regarding `CCCc1c(OCCCCc2nnn[nH]2)ccc(C(C)=O)c1O`, the result_ITMP is listed as -2.7%.

As to `O=[N+]([O-])c1nccn1CC(O)CN1CCCCC1` (stereo not shown), the result_ITMP is recorded as -2.43%.

Regarding `CC1CCc2c(N3CCC(O)CC3)c(F)cc3c(=O)c(C(=O)O)cn1c23` (stereo not shown), the result_ITMP is 1.06%.

With `CN(C)C(=N)NCCC[C@H](N)C(=O)O`, the result_ITMP was -6.33%.

As for `CC(C)[C@@H]1CC[C@@H](C)C[C@@H]1P(=O)(c1ccccc1)c1ccccc1`, the result_ITMP is 20.3%.
